Out of some 340,000 compounds screened, about 6,900 (2%) were called active. Cut-off read from the data, not from the text of the source: active = inhibition above about 30%; inactive = below that, where a call was filed. The entries are a selection whose mix differs from that of the whole data set. Entries without a call were filed so in the source.
Molecular target: D(2) dopamine receptor (Homo sapiens) (UniProt P14416)
Test: HTS Assay for Allosteric Antagonists of the Human D2 Dopamine Receptor: Primary Screen for Antagonists; note: 0% is about no effect
Conditions: HEK293 TREx D2 cells, calcium flux, dopamine EC80; at 10 µM; stronger effect = higher value
Outline: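 In this primary screen, negative modulation is detected by tracking calcium flux after an EC80 dopamine challenge in inducible HEK293 T-REx D2 cells preexposed to test compound for 180 s.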

Sequence of UniProt P14416 (P14416 whole entry, looked up): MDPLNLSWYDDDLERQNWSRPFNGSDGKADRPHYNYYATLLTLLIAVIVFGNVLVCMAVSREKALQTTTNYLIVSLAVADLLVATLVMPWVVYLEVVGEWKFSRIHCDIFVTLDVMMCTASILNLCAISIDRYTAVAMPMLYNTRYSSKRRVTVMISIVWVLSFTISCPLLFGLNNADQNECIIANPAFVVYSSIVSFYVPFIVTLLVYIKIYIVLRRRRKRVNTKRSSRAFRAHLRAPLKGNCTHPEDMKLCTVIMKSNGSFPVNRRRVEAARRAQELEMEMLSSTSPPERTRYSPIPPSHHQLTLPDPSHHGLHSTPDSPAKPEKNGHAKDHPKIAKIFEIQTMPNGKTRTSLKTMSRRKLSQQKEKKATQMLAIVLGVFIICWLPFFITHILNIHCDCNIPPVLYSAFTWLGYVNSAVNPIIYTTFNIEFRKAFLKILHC

| SMILES | inhibition |
| --- | --- |
| CCOc1ccccc1N1CC(c2nc3ccccc3n2CCCOc2ccc(OC)cc2)CC1=O (centres undefined) | 10.8% |
| Cc1noc(-c2ccccc2OCC(=O)Nc2ccccc2[N+](=O)[O-])n1 | 1.6% |
| COc1cccc(CNC(=O)c2ccc(-n3c(C)cc4c3CCCC4)cc2)c1 | 0.608% |
| O=C(NCC1CCN(Cc2cccc(Cl)c2)CC1)Nc1ccc(F)c(Cl)c1 | 20.6% |
| O=C(c1ccco1)N(Cc1cccs1)c1ccc(F)cc1 | -0.254% |
| Cc1cc(O)c(C(c2ccccc2)N2CCN(c3ccc(F)cc3)CC2)c(=O)n1Cc1ccco1 (centres undefined) | 11.4% |
| Cc1ccc(-n2c(CCC(=O)O)ccc2-c2cccs2)cc1Cl | -6.41% |
| CCOc1ccc2c(c1)c(=O)c(C(=O)c1ccc(CC)cc1)cn2CC(=O)Nc1cccc(Cl)c1 | 3.24% |
| Cc1cc(C)c(Cn2c(=O)n(CCC(=O)NCc3ccc4c(c3)OCO4)c(=O)c3ccccc32)c(C)c1 | 12% |
| CCOc1ccc(OCC)c(NC(=O)C2CCN(S(=O)(=O)c3ccc4c(c3)CC(C)N4C(C)=O)CC2)c1 (centres undefined) | 3.27% |
| Cc1ccc(N2C(=O)[C@@H]3CSC(c4ccc(Cl)cc4)N3C2=O)cc1 (some centres undefined) | -13.9% |
| Cc1ccc2occ(CC(=O)N(Cc3ccc(Cl)cc3)Cc3ccco3)c2c1 | -1.11% |
| CCc1ccccc1NC(=O)COCc1cc(-c2ccco2)on1 | 7.54% |
| CCCn1c(Nc2ccccc2C)nc2ccccc21 | active: 42.5% |
| COc1ccccc1S(=O)(=O)Cc1ccc(C(=O)N2CCN(c3cc(Cl)ccc3C)CC2)o1 | 4.33% |
| COC(=O)c1c(-c2ccc(Cl)cc2)noc1N1CCN(c2ccccc2OC)CC1 | 14.5% |
| COc1ccc(CNc2nc(-c3ccc(Cl)cc3)cc(C(F)(F)F)n2)cc1 | -22.3% |
| O=C(CCCCCN1C(=O)CCC1=O)Nc1ncn[nH]1 | active: 45.4% |
| CCCCn1c(CCCNC(=O)c2cccc(C)c2)nc2ccccc21 | -6.84% |
| Cc1ccc2oc(-c3cccc(NC(=O)c4cccc5c(Cl)cccc45)c3)nc2c1 | -15.9% |
| Cc1cccc(NC(=O)c2ccc(CN3CC(=O)N4CCCCC4C3=O)cc2)c1C (centres undefined) | 6.69% |
| CCC(C)Nc1nc2c(c(=O)[nH]c(=O)n2C)n1Cc1ccc(F)cc1 (centres undefined) | -3.24% |
| Cc1ccccc1Nc1c(-c2ccc(N3CCOCC3)cc2)nc2cccc(C)n12 | -1.88% |
| CCOc1ccccc1CNC(=O)c1ccc2nc(N3CCC(C)CC3)sc2c1 | -3.98% |
| Cc1ccc(-n2ncc3c(NCCc4ccc(S(N)(=O)=O)cc4)ncnc32)cc1 | -2.82% |

| SMILES | inhibition |
| --- | --- |
| CCCCOC(=O)CSc1ncnc2sc3c(c12)CCC(C)C3 (centres undefined) | 6.16% |
| CCc1ccc(CN2CCN(C(=O)c3ccco3)CC2)cc1 | active: 83.3% |
| OCC(O)CN1CCN(c2ccccc2)CC1 (centres undefined) | active: 58.9% |
| C=Cc1ccc(Cn2c(C(=O)O)c(CNCCc3ccco3)c3ccc(C)cc32)cc1 | 12.1% |
| COC(=O)c1cc2sccc2n1Cc1nc(-c2cccc(Cl)c2)oc1C | 1.27% |
| CC1=C(c2ccc(C)cc2)S(=O)(=O)NC1=NCc1ccccc1Cl | -5.51% |
| COc1ccc(CNCc2ccc(C(=O)O)s2)cc1 | -3.23% |
| CCOc1ccccc1NC(=O)CSc1ncc2c(n1)-c1ccccc1N(CC)S2(=O)=O | -11.3% |
| Cc1cccc(NC(=O)C(=O)NCCCN2CCOCC2)c1 | 16.3% |
| COc1ccc(NC(=O)c2nc(SCc3ccc(F)cc3)ncc2Cl)cc1 | -1.19% |
| CCOc1ccc(NC(=O)c2sc(-n3nc(C)c(CCC(C)C)c3C)nc2C)cc1 | -4.48% |
| Cc1cccc(C)c1Nc1c(-c2ccccn2)nc2ccc(Cl)cn12 | 1.02% |
| Cc1cccc(OC(=O)c2snnc2C)c1 | -11.6% |
| COc1ccc(-c2nc(CSCC(=O)N3CCN(c4ccccc4F)CC3)c(C)o2)cc1 | -5.82% |
| O=C(NCc1ccccc1)NC1COc2ccccc2C1 (centres undefined) | 9.94% |
| Cn1cc(S(=O)(=O)N2CCCCCC2)cc1C(=O)NCc1ccc(F)cc1 | 13.1% |
| CCN(C(=O)Cn1c(=O)oc2cc(S(=O)(=O)N3CCCCCC3)ccc21)c1cccc(C)c1 | 3.92% |
| O=C(CCS(=O)(=O)c1ccc(Br)s1)Nc1cc(C(F)(F)F)cc(C(F)(F)F)c1 | -2.38% |
| COc1ccc(C(=O)NC(c2ccccc2Cl)c2cc(Cl)c3cccnc3c2O)cc1 (centres undefined) | -11.1% |
| Cc1c(C)n(Cc2ccccc2)c2ccc(C(=O)N3CCN(c4ccccc4)CC3)cc12 | 8.13% |
| CCN(CC)S(=O)(=O)c1ccc2c(c1)N(CC(=O)Nc1c(C)cccc1C)C(=O)C1CCCN21 (centres undefined) | 2.89% |
| CCOC(=O)c1oc2c(c1C)-c1nn(Cc3cccc(Cl)c3)cc1CC2 | 6.65% |
| Cc1ccc(OCC(=O)NCC(=O)OCc2cc(=O)n3nc(C(C)C)sc3n2)cc1 | 4.63% |
| CC(C)Oc1ccc(C(=O)N(Cc2ccc(N(C)C)cc2)Cc2ccco2)cc1 | 7.03% |
